Measured values from the supplement of paper PMC10126150.
Values marked as one replicate rest on one cluster of the flow cell; about a third of the high ones do not repeat.
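Note: ATP exposure 15 min at 22 °C before imaging.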

These sequences were tested on ATP (assay: switch fluorescence ratio, 500 uM ATP over buffer (Cy3 cluster intensity, sum of 5 cycles each) (fold (ratio)); higher = stronger signal-on switching upon ATP binding; sequences stand for … in TCGTCGGCAGCGTCAGATGTGTATAAGAGACAGTTTTTTTTTTTTTTTTTTTTTTTTT…TC). Details: aptamer strand: ATP DNA aptamer (quencher-CACCTGGGGGAGTATTGCGGAGGAAGG + anchor), 100 nM annealed; ATP concentration: 500 uM; one replicate.
Procedure, shortened: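 Clusters with intensities outside 100-1000 RFU were excluded. The remaining Cy3-labelled switching-strand clusters on a modified Illumina MiSeq flow-cell had been annealed to 100 nM quencher-labelled ATP aptamer and imaged in selection buffer, then after 15 min with 500 uM ATP at 22 °C, for five cycles separated by NaOH stripping and re-annealing. The fluorescence ratio, averaged per switch-domain sequence, is each cluster's summed target-cycle Cy3 intensity over its summed buffer-cycle Cy3 intensity.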
AGCCACATG showed a switch fluorescence ratio of 0.999. AGCCACCCTT gave a switch fluorescence ratio of 0.995. With AGCCACTGGG the switch fluorescence ratio was 1.06. For AGCCAGGGAC, the switch fluorescence ratio was 1.02. With AGCCATACTG the switch fluorescence ratio was 1.37. Work on AGCCATGAGA yielded a switch fluorescence ratio of 1. Sequence AGCCATTTAC has a switch fluorescence ratio of 1.26. Sequence AGCCCATTAC has a switch fluorescence ratio of 2.32. With AGCCCTACTA the switch fluorescence ratio was 1.05. With AGCCGCGGAG the switch fluorescence ratio was 1.01. For AGCCGGATAC, the switch fluorescence ratio was 1.43. In the case of AGCCGTTGTC, the switch fluorescence ratio is reported as 0.993. In the case of AGCCTAAGAC, the switch fluorescence ratio is reported as 1.2. For AGCCTCCTTT, the switch fluorescence ratio was 1.04. Work on AGCCTGGATC yielded a switch fluorescence ratio of 1.02. For AGCCTGGC, the switch fluorescence ratio was 1.08. Work on AGCCTGGGGG yielded a switch fluorescence ratio of 0.981. In the case of AGCCTGTAAT, the switch fluorescence ratio is reported as 0.983. Sequence AGCGAAGAGA has a switch fluorescence ratio of 1.02. AGCGAAGTCC gave a switch fluorescence ratio of 1.02. With AGCGAGCTT the switch fluorescence ratio was 1.04. Work on AGCGAGGGAT yielded a switch fluorescence ratio of 1.01. Sequence AGCGAGTCG has a switch fluorescence ratio of 0.999. Sequence AGCGATTACT has a switch fluorescence ratio of 1.69. In the case of AGCGCACGC, the switch fluorescence ratio is reported as 1.03. In the case of AGCGCATAGC, the switch fluorescence ratio is reported as 1.02. With AGCGCCATAT the switch fluorescence ratio was 1.12. In the case of AGCGCCTCGT, the switch fluorescence ratio is reported as 1.01. With AGCGCGTCA the switch fluorescence ratio was 1.03. In the case of AGCGCTGTTC, the switch fluorescence ratio is reported as 1.03. In the case of AGCGCTTGAT, the switch fluorescence ratio is reported as 0.975. AGCGGAATTT showed a switch fluorescence ratio of 0.988. AGCGGCGGTG was tested, and the switch fluorescence ratio was 0.938. Work on AGCGTAA yielded a switch fluorescence ratio of 1.06. Sequence AGCGTACCGT has a switch fluorescence ratio of 1.03. In the case of AGCGTCCTAT, the switch fluorescence ratio is reported as 0.993. AGCTAACGAT gave a switch fluorescence ratio of 1.03. Work on AGCTAAGTCT yielded a switch fluorescence ratio of 1.04. For AGCTAATCAC, the switch fluorescence ratio was 1.37. Work on AGCTACGGGT yielded a switch fluorescence ratio of 1.04. Sequence AGCTAGTCGT has a switch fluorescence ratio of 1. Work on AGCTATATAG yielded a switch fluorescence ratio of 0.995. Work on AGCTCTCGGA yielded a switch fluorescence ratio of 0.987. For AGCTCTTGTG, the switch fluorescence ratio was 0.99. Work on AGCTCTTTTG yielded a switch fluorescence ratio of 0.953. Sequence AGCTGAACCA has a switch fluorescence ratio of 1.01. Work on AGCTGAGTCG yielded a switch fluorescence ratio of 0.933. Sequence AGCTGCCTCA has a switch fluorescence ratio of 1.11. For AGCTGTCTAC, the switch fluorescence ratio was 0.993. Sequence AGCTGTGAAC has a switch fluorescence ratio of 0.994. With AGCTTCAATC the switch fluorescence ratio was 1.09. Work on AGCTTCTAGA yielded a switch fluorescence ratio of 0.994. AGCTTTAAGA was tested, and the switch fluorescence ratio was 0.973. AGCTTTAGAG was tested, and the switch fluorescence ratio was 1.01. In the case of AGCTTTATAT, the switch fluorescence ratio is reported as 1.01. In the case of AGCTTTCGGA, the switch fluorescence ratio is reported as 1.33. AGCTTTGTGA showed a switch fluorescence ratio of 1.05. AGCTTTGTTC was tested, and the switch fluorescence ratio was 0.999. For AGCTTTTGGA, the switch fluorescence ratio was 1.01. With AGGAAAACGC the switch fluorescence ratio was 1.06. Work on AGGAAAAGAA yielded a switch fluorescence ratio of 0.992. With AGGAACAAGC the switch fluorescence ratio was 1. AGGAACCTTT showed a switch fluorescence ratio of 1.26. AGGAACTGCG was tested, and the switch fluorescence ratio was 1. AGGAAGAGAC gave a switch fluorescence ratio of 1.01. Work on AGGAAGGATG yielded a switch fluorescence ratio of 1. AGGAAGTAT showed a switch fluorescence ratio of 1. AGGAATGCCA showed a switch fluorescence ratio of 0.988. AGGAATTGGG gave a switch fluorescence ratio of 0.964. In the case of AGGACATCCG, the switch fluorescence ratio is reported as 0.965. AGGACATGCC gave a switch fluorescence ratio of 1. Work on AGGACCACAT yielded a switch fluorescence ratio of 1.07. Sequence AGGACCCCCA has a switch fluorescence ratio of 1.03. AGGACCGGAG showed a switch fluorescence ratio of 1.03. Sequence AGGACCTTCC has a switch fluorescence ratio of 3.47. In the case of AGGACGGCTT, the switch fluorescence ratio is reported as 1.05. AGGACGTTA gave a switch fluorescence ratio of 1.1. Sequence AGGACTAGAC has a switch fluorescence ratio of 1.07. AGGACTGAGC was tested, and the switch fluorescence ratio was 1.03. AGGACTTGAG gave a switch fluorescence ratio of 0.966. Work on AGGACTTTGC yielded a switch fluorescence ratio of 1. AGGAGAATA was tested, and the switch fluorescence ratio was 0.988. With AGGAGAGTGT the switch fluorescence ratio was 0.965. For AGGAGCCTGT, the switch fluorescence ratio was 0.988. With AGGAGGCAAT the switch fluorescence ratio was 1.16. With AGGAGGTCCC the switch fluorescence ratio was 1.02. Work on AGGAGTCGCG yielded a switch fluorescence ratio of 0.959. AGGAGTTGTG gave a switch fluorescence ratio of 0.976. With AGGATAAGCG the switch fluorescence ratio was 1.01. Work on AGGATATCTG yielded a switch fluorescence ratio of 0.966. Work on AGGATATTGT yielded a switch fluorescence ratio of 1.02. In the case of AGGATCACGA, the switch fluorescence ratio is reported as 0.973. AGGATCCGGG showed a switch fluorescence ratio of 1.01. For AGGATCCTCA, the switch fluorescence ratio was 1.04. In the case of AGGATCGTGG, the switch fluorescence ratio is reported as 1. AGGATTCTCC showed a switch fluorescence ratio of 0.986. Sequence AGGCAACATC has a switch fluorescence ratio of 1.08. In the case of AGGCACGTTT, the switch fluorescence ratio is reported as 1.02. AGGCATGGGT gave a switch fluorescence ratio of 1.1. In the case of AGGCATTGAA, the switch fluorescence ratio is reported as 0.996. AGGCCAACAA gave a switch fluorescence ratio of 0.997. Work on AGGCCATTTG yielded a switch fluorescence ratio of 1.03. For AGGCCCATTG, the switch fluorescence ratio was 0.993. With AGGCCGGACG the switch fluorescence ratio was 0.959. AGGCCTAGGA was tested, and the switch fluorescence ratio was 0.964. Sequence AGGCCTCACG has a switch fluorescence ratio of 1.03. With AGGCCTGGAG the switch fluorescence ratio was 0.96. For AGGCCTTAAC, the switch fluorescence ratio was 1.02. With AGGCGAATGT the switch fluorescence ratio was 0.969. In the case of AGGCGAGAAA, the switch fluorescence ratio is reported as 0.983. In the case of AGGCGAGGAC, the switch fluorescence ratio is reported as 1.03. With AGGCGAGTCC the switch fluorescence ratio was 0.99. With AGGCGATGTG the switch fluorescence ratio was 1.01. AGGCGCCTAG gave a switch fluorescence ratio of 1.02. Sequence AGGCGCCTTC has a switch fluorescence ratio of 1.01. In the case of AGGCGCTATC, the switch fluorescence ratio is reported as 1.25. For AGGCGGCAG, the switch fluorescence ratio was 1.01. In the case of AGGCGGCATA, the switch fluorescence ratio is reported as 0.997. Work on AGGCGGTCGT yielded a switch fluorescence ratio of 0.932. With AGGCGTACCG the switch fluorescence ratio was 0.982. Work on AGGCGTTTGT yielded a switch fluorescence ratio of 0.99. AGGCGTTTT gave a switch fluorescence ratio of 0.956. In the case of AGGCTAAAAT, the switch fluorescence ratio is reported as 0.932. AGGCTACGCT gave a switch fluorescence ratio of 1.02. In the case of AGGCTAGTCC, the switch fluorescence ratio is reported as 0.908. AGGCTATACG was tested, and the switch fluorescence ratio was 1.08. Sequence AGGCTATATA has a switch fluorescence ratio of 1.01. In the case of AGGCTATTAC, the switch fluorescence ratio is reported as 1.37. AGGCTCCGGA was tested, and the switch fluorescence ratio was 1.07. For AGGCTCGGGC, the switch fluorescence ratio was 0.947. In the case of AGGCTCTCCA, the switch fluorescence ratio is reported as 0.968. Sequence AGGCTGCA has a switch fluorescence ratio of 0.994. AGGCTGGGTG gave a switch fluorescence ratio of 1.13. With AGGCTTGGAC the switch fluorescence ratio was 0.987. Work on AGGGAACTGA yielded a switch fluorescence ratio of 0.968. For AGGGAACTTT, the switch fluorescence ratio was 0.978. With AGGGAAGGAG the switch fluorescence ratio was 0.992. In the case of AGGGACATA, the switch fluorescence ratio is reported as 1.03. AGGGACCGAG gave a switch fluorescence ratio of 0.977. With AGGGAGACTC the switch fluorescence ratio was 0.985. For AGGGAGCTAC, the switch fluorescence ratio was 1.42. AGGGAGTACG gave a switch fluorescence ratio of 1.02. AGGGATACAT showed a switch fluorescence ratio of 1.06. For AGGGATCATA, the switch fluorescence ratio was 0.988. Sequence AGGGATCTAA has a switch fluorescence ratio of 1.02. AGGGATGCAA showed a switch fluorescence ratio of 0.999. For AGGGCAACCT, the switch fluorescence ratio was 1.05. With AGGGCAGTTT the switch fluorescence ratio was 1.02. AGGGCCACAG showed a switch fluorescence ratio of 0.989. AGGGCCCACC was tested, and the switch fluorescence ratio was 1.01. In the case of AGGGCCGGG, the switch fluorescence ratio is reported as 1.17. AGGGCGAGAA gave a switch fluorescence ratio of 1.08. For AGGGCGAGGG, the switch fluorescence ratio was 1.02. In the case of AGGGCGCGCG, the switch fluorescence ratio is reported as 1.02. With AGGGCGGAAT the switch fluorescence ratio was 1.01. Sequence AGGGCTAATG has a switch fluorescence ratio of 0.99. Work on AGGGCTAGAG yielded a switch fluorescence ratio of 0.985. For AGGGCTCCGA, the switch fluorescence ratio was 1.03. Sequence AGGGCTCGCT has a switch fluorescence ratio of 1.01. For AGGGGACATG, the switch fluorescence ratio was 1.09. Work on AGGGGCAA yielded a switch fluorescence ratio of 1.45. AGGGGCCACA gave a switch fluorescence ratio of 0.978. Work on AGGGGCCTT yielded a switch fluorescence ratio of 1.05. In the case of AGGGGCGGA, the switch fluorescence ratio is reported as 0.994. AGGGGCTCGG was tested, and the switch fluorescence ratio was 0.999. AGGGGGAGT was tested, and the switch fluorescence ratio was 1.02. AGGGGGCAG was tested, and the switch fluorescence ratio was 1.01. AGGGGGTACC was tested, and the switch fluorescence ratio was 1.02. AGGGGGTGGA was tested, and the switch fluorescence ratio was 1.01. With AGGGGGTTC the switch fluorescence ratio was 0.99. With AGGGGTCTAT the switch fluorescence ratio was 0.977. AGGGGTTGTC showed a switch fluorescence ratio of 1.01. Sequence AGGGTAGTCA has a switch fluorescence ratio of 1.03. AGGGTATGCT showed a switch fluorescence ratio of 1.02. For AGGGTCGAGC, the switch fluorescence ratio was 0.989. Work on AGGGTCTGTG yielded a switch fluorescence ratio of 0.981. AGGGTGCATG gave a switch fluorescence ratio of 1.01. For AGGGTGCTT, the switch fluorescence ratio was 1.03. AGGGTGGCTG was tested, and the switch fluorescence ratio was 0.906. AGGGTGGGTC showed a switch fluorescence ratio of 0.971. AGGGTTAAA was tested, and the switch fluorescence ratio was 0.994. AGGGTTCGAA showed a switch fluorescence ratio of 1.06. AGGGTTGCGG showed a switch fluorescence ratio of 0.978. Sequence AGGGTTGTTT has a switch fluorescence ratio of 0.959. Sequence AGGGTTTATA has a switch fluorescence ratio of 1.02. AGGTAAAATA gave a switch fluorescence ratio of 1.02. Work on AGGTAACTAC yielded a switch fluorescence ratio of 1.01. For AGGTACGATA, the switch fluorescence ratio was 1.07. AGGTACGCAC gave a switch fluorescence ratio of 1.72. For AGGTAGACAA, the switch fluorescence ratio was 1.03. In the case of AGGTAGGTAT, the switch fluorescence ratio is reported as 0.985. AGGTATGGTA showed a switch fluorescence ratio of 0.984. AGGTATGTTA showed a switch fluorescence ratio of 0.967. In the case of AGGTATTTGC, the switch fluorescence ratio is reported as 1.01. Work on AGGTCAAGAT yielded a switch fluorescence ratio of 0.968. AGGTCAGATG gave a switch fluorescence ratio of 0.974. In the case of AGGTCAGGTA, the switch fluorescence ratio is reported as 0.982. AGGTCAGTTG gave a switch fluorescence ratio of 0.988. Sequence AGGTCATCTT has a switch fluorescence ratio of 0.991. For AGGTCGGGAC, the switch fluorescence ratio was 1.03. AGGTCGTACG gave a switch fluorescence ratio of 1.
